Some of the results follow. The full chains were built here from the parent and the listed change. Inactive controls read about 0.05.
B1: TEV protease; numbered along this chain (parent)
chain: MGESLFKGPRDYNPISSSICHLTNESDGHTTSLYGIGFGPFIITNKHLFRRNNGTLVVQSLHGVFKVKDTTTLQQHLVDGRDMIIIRMPKDFPPFPQKLKFREPQREERICLVTTNFQTKSMSSMVSDTSCTFPSGDGIFWKHWIQTKDGQCGSPLVSTRDGFIVGIHSASNFTNTNNYFTSVPKNFMELLTNQEAQQWVSGWRLNADSVLWGGHKVFMVKPEEPFQPVKEATQL

Variants of: B1
Experiment: raw area under fraction-flipped curve 0-4 h after induction (AUC4h, not background-subtracted), DNA-recorder readout of cleavage of the substrate (dimensionless); higher = more cleavage of the substrate by the protease variant
Settings: temperature: 34 °C; time window: 0-4 h after rhamnose induction
Description: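 In vivo DNA recorder in E. coli TOP10(DE3) ΔrhaA at 34 °C. Each TEVp single-site mutant (parent TEVp 0) is paired with a single-site variant of the 7-mer TEVs (canonical ENLYFQ|S). The substrate sits between flexible linkers in a Bxb1-sfGFP-TEVs-SsrA fusion, so cleavage stabilises Bxb1 and speeds flipping of a recombination array, read by NGS. The value is the raw area under the fraction-flipped curve over 0-4 h after rhamnose induction (AUC4h), with ≥20 reads per time point. It is not background-subtracted; inactive controls average about 0.047.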
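Further: Bxb1 expression induced with 0.2% (w/v) L-rhamnose at OD600 near 0.5, cultures sampled hourly, flipped fraction per protease–substrate barcode pair counted by paired-end Illumina sequencing.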

Row | Variant | area with substrate DNLYFQS | area with substrate GNLYFQS | area with substrate INLYFQS | area with substrate KNLYFQS | area with substrate LNLYFQS | area with substrate MNLYFQS | area with substrate NNLYFQS | area with substrate PNLYFQS | area with substrate QNLYFQS | area with substrate SNLYFQS | area with substrate TNLYFQS | area with substrate WNLYFQS | area with substrate YNLYFQS | area with substrate FNLYFQS | area with substrate HNLYFQS | area with substrate VNLYFQS | area with substrate RNLYFQS
1 | W199M | 0.0416 | 0.063 | 0.0551 | 0.0505 | 0.0515 | 0.0513 | 0.0701 | 0.0487 | 0.0661 | 0.0547 | 0.0625 | 0.0455 | 0.057 |  |  |  | 
2 | L190E | 0.0645 |  | 0.0647 | 0.0744 | 0.0545 | 0.048 | 0.0663 | 0.0569 | 0.0566 |  |  | 0.0559 | 0.0641 | 0.0503 | 0.055 | 0.0654 | 
3 | N193W | 0.0659 |  |  | 0.0583 | 0.0692 | 0.0505 |  | 0.0605 |  |  | 0.0537 | 0.052 | 0.0612 |  |  |  | 
4 | I15V | 0.0659 | 0.0487 | 0.0646 | 0.0929 | 0.065 |  | 0.0595 |  |  | 0.0365 | 0.0739 | 0.0735 |  |  | 0.0619 |  | 
5 | Q75T | 0.0856 |  |  |  | 0.0632 | 0.0619 |  | 0.0661 | 0.063 |  | 0.0634 | 0.0546 | 0.0646 | 0.0669 | 0.0716 | 0.05 | 
6 | S169G | 0.0523 |  | 0.0514 | 0.0632 | 0.0565 | 0.0691 |  | 0.0636 |  | 0.0568 | 0.064 | 0.0585 | 0.0559 | 0.0627 | 0.057 |  | 
7 | T31H | 0.082 |  |  | 0.0632 | 0.0642 | 0.0628 |  |  |  | 0.0497 | 0.0585 | 0.0661 |  |  | 0.0782 |  | 
8 | I43M | 0.0648 |  |  |  | 0.0596 | 0.0531 | 0.0871 | 0.0618 |  | 0.07 | 0.0463 | 0.0591 | 0.0706 | 0.0623 | 0.0681 | 0.0658 | 
9 | L190Q | 0.0433 |  | 0.0659 | 0.0618 | 0.0699 |  | 0.0601 |  |  | 0.0719 |  | 0.0759 |  |  |  |  | 
10 | E231R | 0.0503 |  | 0.0792 |  | 0.0821 | 0.0734 | 0.0664 | 0.0724 |  |  | 0.129 | 0.0634 |  | 0.0566 | 0.0566 | 0.0577 | 
11 | K90Q | 0.0968 |  |  |  |  |  |  | 0.0692 |  |  | 0.0557 |  | 0.0613 | 0.0762 | 0.0507 | 0.0705 | 
12 | W141T | 0.0217 | 0.0504 | 0.0604 | 0.0582 | 0.0639 | 0.0575 | 0.034 | 0.0537 |  |  | 0.046 | 0.0433 |  | 0.0564 |  |  | 
13 | T129S | 0.121 |  | 0.0489 | 0.0901 | 0.0707 | 0.0626 | 0.0659 | 0.0658 | 0.0974 | 0.0665 | 0.0563 | 0.0454 | 0.0428 | 0.0523 | 0.0783 | 0.0613 | 
14 | T31L | 0.068 | 0.0583 |  | 0.0728 | 0.0728 | 0.0723 | 0.0592 | 0.0651 | 0.0744 | 0.0686 | 0.0667 | 0.0651 |  | 0.0786 |  | 0.0524 | 
15 | V126S | 0.11 |  | 0.0314 | 0.0701 | 0.0616 |  | 0.0554 |  | 0.0624 | 0.0802 | 0.0804 | 0.0578 | 0.0693 | 0.0655 | 0.0683 | 0.066 | 
16 | Q227R | 0.0799 | 0.0537 |  |  | 0.0869 | 0.0752 |  | 0.0652 |  |  | 0.0784 |  |  |  |  | 0.0705 | 

Row | Variant | area with substrate DNLYFQS | area with substrate GNLYFQS | area with substrate INLYFQS | area with substrate KNLYFQS | area with substrate LNLYFQS | area with substrate MNLYFQS | area with substrate NNLYFQS | area with substrate PNLYFQS | area with substrate QNLYFQS | area with substrate SNLYFQS | area with substrate TNLYFQS | area with substrate WNLYFQS | area with substrate YNLYFQS | area with substrate FNLYFQS | area with substrate HNLYFQS | area with substrate VNLYFQS | area with substrate RNLYFQS
17 | C111V | 0.0857 | 0.0826 |  |  | 0.0569 |  |  | 0.0543 |  | 0.042 | 0.0666 | 0.0508 | 0.077 |  | 0.0517 | 0.07 | 
18 | W141V | 0.0408 | 0.0496 | 0.0403 |  |  | 0.0795 | 0.0462 | 0.0594 |  |  | 0.0639 | 0.0561 | 0.0282 | 0.0501 | 0.0481 | 0.0309 | 
19 | S158R | 0.0534 |  |  | 0.0592 | 0.0476 |  |  | 0.0639 |  |  |  |  |  | 0.0417 | 0.036 |  | 
20 | V183S | 0.0715 |  |  | 0.0585 |  | 0.0661 | 0.0599 | 0.0626 |  |  | 0.0325 | 0.0485 | 0.0475 |  |  |  | 
21 | D69M | 0.014 | 0.0623 | 0.0357 |  | 0.0465 | 0.0633 |  | 0.0645 |  |  | 0.0606 | 0.0578 |  |  | 0.0567 |  | 
22 | R50Q | 0.094 | 0.0811 |  |  | 0.0743 | 0.0678 | 0.0724 | 0.0779 |  | 0.0736 | 0.0715 | 0.0684 | 0.0554 |  | 0.0609 |  | 
23 | K185Q | 0.0798 | 0.0627 | 0.0632 |  |  | 0.0589 |  | 0.0637 |  |  | 0.0722 | 0.0625 | 0.0651 |  | 0.074 |  | 0.0735
24 | K120R | 0.0665 | 0.0986 | 0.0563 | 0.0774 | 0.0569 | 0.0648 | 0.0716 | 0.0802 | 0.0736 | 0.0582 | 0.0691 | 0.0594 | 0.0541 | 0.0617 | 0.0662 | 0.0646 | 
25 | L191V | 0.108 |  |  | 0.0579 |  | 0.0556 | 0.0592 | 0.0661 |  | 0.0642 |  | 0.0551 | 0.0724 | 0.0644 | 0.0744 |  | 
26 | Q151A | 0.0597 |  | 0.0507 | 0.0666 | 0.0586 | 0.0434 | 0.06 | 0.0644 |  |  | 0.0987 |  |  |  | 0.0557 |  | 
27 | W203L | 0.0324 | 0.0666 | 0.0678 |  | 0.0556 |  |  | 0.0594 |  | 0.0575 | 0.0614 |  |  |  |  | 0.0612 | 
28 | N178T | 0.0804 | 0.0617 | 0.064 | 0.0466 | 0.0596 |  |  | 0.0723 |  |  | 0.0773 | 0.0475 | 0.0392 | 0.0497 | 0.0552 |  | 
29 | V78T | 0.0641 | 0.0708 |  |  |  |  |  | 0.0611 |  | 0.0653 | 0.0592 | 0.0192 | 0.0622 | 0.055 | 0.0317 | 0.0737 | 
30 | E189W | 0.0774 |  | 0.041 | 0.0721 |  | 0.0856 |  |  |  | 0.0565 | 0.0711 | 0.0632 | 0.0741 | 0.0717 | 0.0838 |  | 
31 | Q194M | 0.0783 | 0.0702 | 0.0707 | 0.0996 |  |  | 0.0681 | 0.071 | 0.0687 | 0.0639 |  |  |  |  |  |  | 
32 | D82E | 0.0449 | 0.0611 |  |  | 0.0542 | 0.0651 | 0.0597 | 0.0698 |  | 0.0557 | 0.0728 | 0.0511 | 0.0413 | 0.0603 | 0.0718 |  | 0.0486
